Test results reported in ChEMBL document CHEMBL1157539, “Thousands of chemical starting points for antimalarial lead identification” (Nature, 2010).
Values joined by “and” are separate entries in the source; they are usually repeats but may differ in a detail not shown here. Equal values may be shown once. The full ranking holds about 13,000 compounds; the median of “IFI” is about 4, and the highest 2% start at about 17. This is one part of the list.

assay: GSK_TCMDC: Inhibition Frequency Index (IFI). The number of non-kinase HTS assays where a compound showed > 50 % inhibition, expressed as a percentage of the number of such assays in which the compound was tested (-0 is zero); type: functional

| Structure (SMILES) | IFI |
| --- | --- |
| O=C(NCCc1ccccc1)N(Cc1ccccc1-c1cccc(CNCc2ccc3c(c2)OCO3)c1)C1CCN(Cc2ccccc2)CC1 | 8.63% |
| COc1cc(NC2=NS(=O)(=O)c3cc(Cl)ccc3N2C)cc(OC)c1OC | -0% |
| COc1ccc(Cn2ccc3c4c(N)nc(N)nc4ccc32)cc1 | 12.3% |
| CCOc1ccc(C(=O)N2CCOC(CCN3CCC4(CCc5ccccc54)CC3)(c3ccc(Cl)c(Cl)c3)C2)cc1 (centres undefined) | 6.9% |
| CC(=O)N1c2ccccc2C(C)=CC1(C)C | 0.71% |
| CC(=O)NCCNCc1cccc(C(=O)NCc2cccc(C(F)(F)F)c2)c1 | -0% |
| CNCCCn1c(N(C)C)nc2cc(-n3cnc4cc(-c5ccc(Cl)cc5)sc4c3=O)ccc21 | 8.89% |
| CCNc1cc(C(=O)N[C@@H](Cc2ccccc2)[C@H](O)CNC2CCC(C(C)(C)C)CC2)cc(N2CCCC2=O)c1 (some centres undefined) | 2.92% |
| CC=Cc1cc(Cc2c[nH]c(=N)[nH]c2=N)cc(CCC)c1OC | 2.27% |
| CCc1cc2c(cc1CC)CC(NC[C@@H](O)c1ccc(O)c3[nH]c(=O)ccc13)C2 | 6.45% |
| c1ccc(-c2nc(NCCCn3ccnc3)cc(-c3ccncc3)n2)cc1 | 1.06% |
| Oc1ccc(Nc2ccnc3cc(Cl)ccc23)cc1 | 3.57% |
| CC(C)(C)OC(=O)NCc1ccc(Nc2nnc(-c3ccc(OCC(=O)NCc4ccc(C(C)(C)C)cc4)c([N+](=O)[O-])c3)o2)cc1 | 3.1% |
| Fc1cc(CN2CCCC2)ccc1OCCCN1CCN(c2cccc(Cl)c2Cl)CC1 | 10.3% |
| CCCN1CCN(CCCCNc2c3ccccc3nc3ccccc23)CC1 | 2.94% |
| CCc1ccccc1N1CCN(CCCC(=O)c2ccc(NC(=O)c3ccc(Cl)cc3)cc2)CC1 | 0.89% |
| CCCCN1CCCN(Cc2cccc(NC(=O)c3ccc(-c4ccccc4)cc3)c2)CC1 | 4.76% |
| CN(Cc1cc(C(F)(F)F)cc(C(F)(F)F)c1)C(=O)C(Cc1ccc(F)cc1)C1CCCNC1 (centres undefined) | 5.41% |
| CC1CN(Cc2ccc(-c3cccc(-c4nc5cc(F)ccc5[nH]4)c3)cc2)CC(C)O1 (centres undefined) | 4.29% |
| CN(C)c1ccc(CN2CCCC(CNC(=O)c3ccc(-c4cccc(C(F)(F)F)c4)s3)C2)cc1 (centres undefined) | 10.7% |
| COc1ccc2nccc(N3CCC(SCCNCc4cc5c(cn4)OCCO5)C3)c2n1 (centres undefined) | 6.34% |
| O=C(/C=C/c1ccc(Cl)c(Cl)c1)NCCCCCN1CCC(NC(=O)Nc2ccc(Cl)c(C(F)(F)F)c2)CC1 | 13.3% |
| Nc1nc(Nc2cccc(Cl)c2)ncc1C(=O)NCc1ccncc1 | 3.33% |

| Structure (SMILES) | IFI |
| --- | --- |
| CN(C)CCOc1ccc2nc(-c3cccc(OCc4ccccc4)c3)[nH]c2c1C#N | 9.09% |
| NS(=O)(=O)c1cccc(Nc2nc(N[C@@H]3CCNC3)nc3cc[nH]c(=O)c23)c1 | 18.2% |
| COc1c(C2CCN(CCCCNC(=O)c3ccc(-c4ccc(Cl)cc4)c(OCC(N)=O)c3)CC2)ccc2c1CCCC2 | 12.9% |
| Cc1ccc(-n2c(=O)c3c(n4c(SC(C)C)nnc24)-c2ccccc2CC32CCCCC2)cc1 | -0% |
| Cc1cc(C(=O)Nc2ccc3c(ccn3C3CCCN(Cc4ccc(C(F)(F)F)cc4F)CC3)c2)no1 (centres undefined) | 3.13% |
| Cc1cc(N[C@@H](Cc2ccccc2)C(=O)NCc2cccs2)nc(NCCOc2ccccc2)n1 | 9.09% |
| CC(=O)N(C)c1cccc(C(=O)Nc2ccc(-c3cccc(-c4nc5cccc(C)c5[nH]4)c3)cc2)c1 | 7.76% |
| Cc1cccc2nc(-c3ccc(-c4cccc(NC(=O)Nc5ccsc5)c4)s3)[nH]c12 | 4.04% |
| CC(=O)Nc1cccc(CN(Cc2ccc(-c3ccc(CNCc4cccnc4)cn3)cc2)C(=O)Cc2cccnc2)c1 | -0% |
| COc1ccc2c(N/N=C/c3ccccc3[N+](=O)[O-])cc(C)nc2c1 | 0.77% |
| Clc1ncccc1-c1nc(NCCC(c2ccccc2)c2ccccc2)no1 | 4.84% |
| CC(C)c1ccc(NC(=O)N[C@H]2CCN(CCCCCNC(=O)/C=C/c3ccc(Cl)c(Cl)c3)C2)cc1 | 7.86% |
| COc1ccc(NC(=O)[C@H](Cc2ccccc2)Nc2cc(C)nc(Nc3ccccc3)n2)cc1 | 2.5% |
| O=C(Nc1cccc(CN2CCCN(CCc3ccccc3)CC2)c1)c1cc2ccccc2s1 | 7.75% |
| CCNc1cc(C(=O)N[C@@H](Cc2ccccc2Cl)[C@H](O)CNC2CCCCC2)cc(N2CCCCS2(=O)=O)c1 | 2.88% |
| CN1CCN(c2cc3c(cc2Cl)CCN3C(=O)Cc2ccc(Cl)c(NC(=O)Nc3cccc([N+](=O)[O-])c3)c2)CC1 | 5% |
| CCOc1ccccc1C=CC(=O)Nc1ccc2nc(N3CCN(C)CC3)cc(C)c2c1 | 6.85% |
| CCCOc1ccc(CNCCCCCCNCc2ccc(OCCC)c3ccccc23)c2ccccc12 | 15.6% |
| COc1ccc(C2C(C(=O)Nc3cc(Cl)c(OC)cc3OC)c3ccccc3C(=O)N2C)cc1 (centres undefined) | 0.69% |
| O=[N+]([O-])c1ccc(-c2nc3cc(C4=NC5CCCCC5N4)ccc3[nH]2)cc1 (centres undefined) | 1.39% |
| O=C(NCc1ccccc1)c1nn(CCCN2CCC(N3CCCC3)CC2)cc1-c1ccc(Cl)c(Cl)c1 | 9.46% |
| Cc1noc(-c2ccc(O)cc2O)c1-c1ccc2c(c1)OCCCO2 | 3.76% |
| Cc1[nH]c(C)c(-c2ccc(Oc3ccc(OC(F)(F)F)cc3)cc2)c(=O)c1Br | 1.94% and -0% |

| Structure (SMILES) | IFI |
| --- | --- |
| O=C(NC1CCC(CCN2Cc3cccc(F)c3C2)CC1)c1cccc(-c2cccnc2)c1 (centres undefined) | -0% |
| O=c1nc2[nH]c3ccccc3n2c(=O)[nH]1 | -0% |
| N=C(N)Nc1ccc(NC(=O)Nc2ccc(NC(=N)N)cc2)cc1 | 1.47% |
| COc1ccc(-c2nc(NC(=O)COc3ccc(C(C)=O)cc3)sc2C)cc1 | 2.99% |
| CC(C)(C)OC(=O)N[C@@H](Cc1ccccc1)C(=O)Nc1cccc(-c2cccc(NC(=O)[C@H](Cc3ccccc3)NC(=O)OC(C)(C)C)c2)c1 | 0.72% |
| N=C(N)NN=Cc1c[nH]c2ccc(-c3ccccc3)cc12 | 3.68% |
| NC[C@H](CC1CCCCC1)NC(=O)c1ccc(-c2ccnc3[nH]ccc23)s1 | 22.2% |
| Cc1cccc(Cn2c(C(N)=O)nn(-c3ccc([N+](=O)[O-])cc3C#N)c2=S)c1 | 2.72% |
| CC(CN(C)C)C(=O)Nc1ccc(-c2ccc(-c3nc4ccccc4[nH]3)s2)cc1 (centres undefined) | 4.5% |
| O=[N+]([O-])c1cccc(/C=N/Nc2ccnc3ccc(C(F)(F)F)cc23)c1 | -0% |
| O=[N+]([O-])c1cccc(NC(=S)N2CCCN(Cc3ccc(Cl)cc3Cl)CC2)c1 | 2.99% |
| COc1cc(CCON2C(N)=NC(N)=NC2(C)C)cc(OC)c1OC | 3.73% |
| Cc1cccc2nc(-c3ccc(-c4cccc(CNCc5cccc(N)c5)c4)s3)[nH]c12 | 7.62% |
| Cc1cccc2nc(-c3cccc(-c4cccc(CN5CCCC5CN)c4)c3)[nH]c12 (centres undefined) | 4.95% |
| CCc1nc(N)nc(N)c1-c1ccc(F)c(F)c1 | 1.49% |
| COc1ccc2nc(N=C3NC4(c5ccccc5)NC(=Nc5nc6ccc(OC)cc6[nH]5)NC4(c4ccccc4)N3)[nH]c2c1 (centres undefined) | 2.99% |
| O=C(Nc1ccncc1)c1cn(-c2ccccc2)nc1-c1cccs1 | 3.33% |
| COc1cc2nc(N3CCC(CNC(=O)c4ccc(OC(F)(F)F)cc4)CC3)nc(N)c2cc1OC | 6.09% |
| CCn1c2ccccc2c2cc(Cc3cnc(N)nc3N)ccc21 | 3.94% |
| Cc1ccc(N2C(=O)C3C(C2=O)C2(c4ccccc4)C(=O)C3(c3ccccc3)C(c3ccccc3)=C2c2ccccc2)c(C)c1 (centres undefined) | 0.75% |
| COc1ccc(CNc2nc(Nc3cccc(C#N)c3)nc(Nc3cccc(C#N)c3)n2)cc1Cl | 4.38% |
| O=C(N[C@@H](CC1CCCCC1)C(=O)NCc1cccc2ccccc12)c1ccc(O)c(-c2ccc(Cl)c(Cl)c2)c1 | 1.47% |
| CCCNCc1ccc(-c2ccc(CN(CCOC)C(=O)c3ccco3)cc2)nc1 | 0.69% |

| Structure (SMILES) | IFI |
| --- | --- |
| O=C(O[C@@H]1CN[C@H](C#Cc2cc3ncnc(Nc4ccc5c(cnn5Cc5cccc(F)c5)c4)c3s2)C1)N1CCCC1 | 2.59% |
| Clc1cccc(CNC2CCN(CC3CCCCC3)CC2)c1 | 2.03% |
| Nc1nc(N)c2c(ccc3c2ccn3Cc2ccc(-c3ccccc3)cc2)n1 | 12.8% |
| Cn1cncc1C(=O)Nc1cccc(-c2cccc(-c3nc4cc(F)ccc4[nH]3)c2)c1 | 2.7% |
| Cc1cc(C=C2SC(=Nc3ccccc3)N(C3CCCC3)C2=O)c(C)n1-c1ccc(Cl)cc1 | -0% |
| CO/C(=C\C=C\c1cc2cc(Cl)c(Cl)cc2[nH]1)C(=O)NCCCN1CCC(c2ccccc2)CC1 | 12.6% |
| Cc1ccc(C(O)CNc2ccnc(Nc3cccc(-c4csc(C)n4)c3)n2)cc1 (centres undefined) | 8.74% |
| COc1cc(C(C)C)ccc1C1CCN(CCCCNC(=O)c2ccc(NC(=O)c3ccc(Cl)cc3)cc2)CC1 | 10.4% |
| CS(=O)(=O)c1ccc(-n2nc(C(F)(F)F)cc2-c2ccc(C=NOCC(=O)O)o2)cc1 | 0.74% |
| CC(C)(C)c1ccc(NC(=O)c2cccc(CN3CCN(Cc4cccc(O)c4)CC3)c2)cc1 | 6.67% |
| O=C(Cc1c[nH]cn1)Nc1cccc(-c2cccc(-c3nc4cc(F)ccc4[nH]3)c2)c1 | 5.5% |
| Cc1cc(-c2nc3ccc(CN4CCN(C)CC4)cc3[nH]2)nn1Cc1cc(Cl)ccc1OCc1ccccc1 | 11.5% |
| CC1CC(NCCCNc2cc(=O)c3ccccc3[nH]2)c2c1cc(Cl)c(Cl)c2Cl (centres undefined) | 6.52% |
| CCC(ON1C(N)=NC(N)=NC1(C)C)c1ccc(Cl)cc1 (centres undefined) | 4.44% |
| Oc1ccc2nc(N3CCNCC3)nc(NCCCc3ccccc3)c2c1 | 1.52% |
| O=C(Nc1cccc(C(F)(F)F)c1)c1cccc(S(=O)(=O)NCC2CCN(CC3CCCCC3)CC2)c1 | -0% |
| O=C(Nc1cccc(CN2CCCN(Cc3cccc(Cl)c3)CC2)c1)c1ccc(-c2ccccc2)cc1 | 6.85% |
| NCc1cccc(-c2ccc3ccnc(N)c3c2)c1 | 2.86% |
| COc1ccc(Nc2nccc(-c3ccc4c(-c5ccsc5)cnc(N)c4c3)n2)cc1 | 2.13% |
| Cc1cc(C)cc(NC(=S)NCCCCN2CCN(c3cccc(Cl)c3)CC2)c1 | 4.29% |
